Results taken from patent publication US20080064736A1, “Substituted 2-Pyrrolidone Derivatives as Fungicides and Insecticides” (Bayer Cropscience AG, priority 2004, published 2008).

Assay: Determination of logP-values by HPLC (EEC-Directive 79/831 Annex V. A8)
Excerpt: Determination of logP-values was made according to EEC-Directive 79/831. Annex V. A8 by HPLC (gradient method, acetonitrile/0.1% aqueous phosphoric acid).

[1] = HPLC gradient method, acetonitrile/0.1% aqueous phosphoric acid

Row | SMILES | log P | also measured
1 | CCCCCC[C@H](C(=O)OC)[C@@H](O)C[C@@]1(C(=O)OC)N=C(c2ccccc2)O[C@H]1C(C)C | 5.93 | –
2 | CCCCCC[C@H]1C(=O)N[C@](C(=O)OC)([C@@H](O)C(C)C)[C@@]1(C)O | – | log P [1]: 2.16
3 | CCCCCC[C@@H]1C(=O)N[C@@]2([C@@H](O)C(C)C)C(=O)O[C@@]12C [Example 9, (1R,4S,5S)-4-hexyl-1-[(1S)-1-hydroxy-2-methylpropyl]-5-methyl-6-oxa-2-azabicyclo[3.2.0]heptane-3,7-dione] | – | logP*) [1]: 2.79
4 | CCCCCC[C@H]1C(=O)N[C@](C(=O)O)([C@@H](O)C(C)C)[C@@]1(C)O | – | log P [1]: 1.86
5 | CCCCCC[C@H](C(=O)OC)[C@H](O)C[C@@]1(C(=O)OC)N=C(c2ccccc2)O[C@H]1C(C)C | 5.56 | –
6 | CCCCCC[C@@H](C(=O)OC)[C@H](O)C[C@@]1(C(=O)OC)N=C(c2ccccc2)O[C@H]1C(C)C | 5.32 | –
7 | CCCCCC[C@@H](C(=O)OC)[C@@H](O)C[C@@]1(C(=O)OC)N=C(c2ccccc2)O[C@H]1C(C)C | 5.48 | –
8 | CCCCCC[C@H]1C(=O)N[C@@]2([C@@H](O)C(C)C)C(=O)O[C@@]12C [Example 8, (1R,4R,5S)-4-hexyl-1-[(1S)-1-hydroxy-2-methylpropyl]-5-methyl-6-oxa-2-azabicyclo[3.2.0]heptane-3,7-dione] | – | logP*) [1]: 2.87

Like-named read-outs stand apart in the source and are kept apart here.
